{"source": "PubChem BioAssay (Tox21)", "note": "The shares of active, inactive and inconclusive entries below differ from those in the screen. No potency is given beside an inconclusive call; the fits are too rough. The source made the active and inactive calls. Calls come from the whole dose curve; as a rule, active = well fitted cell-killing curve with a large enough effect in the repeat runs; inconclusive = weak or mixed curves; inactive = flat fitted curve, though single readings scatter. % is set by controls: 0 for no effect and ±100 for the full control effect; potency is the fitted concentration of half-maximal effect; tags give direction and shape of the fitted curve."}
{"assay": "qHTS assay to identify small molecule antagonists of the TGF-beta/Smad signaling pathway - cell viability counter screen (AID 1346824); note: nearly all actives have a fitted effect of over 50% in size", "details": "SBE-bla HEK293T viability, CellTiter-Glo luminescence; series mostly up to 76.8 µM; viability change, negative = cytotoxic: at the top concentration", "summary_of_the_method": "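Cytotoxicity counter-screen run in the same wells as the beta-lactamase Smad reporter read: CellTiter-Glo luminescence after 30 min at room temperature. HEK 293T SBE-bla cells had 5 hr compound exposure at 37 C with TGF-beta1 (0.25 ng/mL stock).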"}
{"smiles": "N#CC(CCc1ccc(Cl)cc1)(Cn1cncn1)c1ccccc1", "note": "(stereo not drawn)", "Potency": "active: 54.9 µM"}
{"smiles": "C[C@H]1[C@H](c2ccc(Cl)cc2)SC(=O)N1C(=O)NC1CCCCC1", "Potency": "inconclusive [cytotoxic, partial curve, poor fit]"}
{"smiles": "CO/C=C(/C(=O)OC)c1ccccc1COc1cccc(C(F)(F)F)n1", "viability change, negative = cytotoxic": "inactive: -26.7%"}
